# In the supplement of paper PMC8728848:
# The other results are listed elsewhere or left out.
# B1: BDCA2 ex-domain (Homo sapiens) (protein)
# chain: MASHHHHHHIEGRGLNDIFEAQKIEWHESLVPRGSCPTPWTSFQSSCYFISTGMQSWTKSQKNCSVMGADLVVINTREEQDFIIQNLKRNSSYFLGLSDPGGRRHWQWVDQTPYNENVTFWHSGEPNNLDERCAIINFRSSEEWGWNDIHCHVPQKSICKMKKIY
# What was measured:
# Experiment in all cases: glycan array binding signal (z-score within array); higher = stronger binding
# Settings in all cases: glycan notation: IUPAC condensed, linker removed
# [1] = target: Neu5Ac(a2-3)Gal(b1-3)[Fuc(a1-4)]GlcNAc
# How it was run: (§1)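 Arrays were curated from the Consortium for Functional Glycomics database, 3228 in total, and kept only where the protein sequence was available. Binding is expressed as a within-array Z-score. This score was averaged across arrays of the same protein sequence at different concentrations or buffers and across linkers, and negative values can be read as non-binding.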
# [2] = target: Neu5Ac(a2-3)Gal(b1-3)[Fuc(a1-4)]GlcNAc(b1-3)Gal(b1-4)[Fuc(a1-3)]GlcNAc
# How it was run: as §1
# [3] = target: Neu5Ac(a2-3)Gal(b1-3)[Neu5Ac(a2-3)Gal(b1-4)]GlcNAc
# How it was run: as §1
# [4] = target: Neu5Ac(a2-3)Gal(b1-3)[Neu5Ac(a2-6)]GalNAc
# How it was run: as §1
# Neu5Ac(a2-3)Gal(b1-4)Glc = target: Neu5Ac(a2-3)Gal(b1-4)Glc
# How it was run: as §1
# [5] = target: Neu5Ac(a2-3)Gal(b1-4)GlcNAc
# How it was run: as §1
# [6] = target: Neu5Ac(a2-3)Gal(b1-4)GlcNAc(b1-2)Man(a1-3)[GlcNAc(b1-2)Man(b1-4)GlcNAc(b1-2)Man(a1-6)]Man(b1-4)GlcNAc(b1-4)GlcNAc
# How it was run: as §1
# [7] = target: Neu5Ac(a2-3)Gal(b1-4)GlcNAc(b1-2)Man(a1-3)[Neu5Ac(a2-6)Gal(b1-4)GlcNAc(b1-2)Man(a1-6)]Man(b1-4)GlcNAc(b1-4)GlcNAc
# How it was run: as §1
# [8] = target: Neu5Ac(a2-3)Gal(b1-4)GlcNAc(b1-3)Gal(b1-3)GlcNAc
# How it was run: as §1
# [9] = target: Neu5Ac(a2-3)Gal(b1-4)GlcNAc(b1-3)Gal(b1-4)GlcNAc
# How it was run: as §1
# [10] = target: Neu5Ac(a2-3)Gal(b1-4)GlcNAc(b1-3)Gal(b1-4)GlcNAc(b1-3)Gal(b1-4)GlcNAc
# How it was run: as §1
# [11] = target: Neu5Ac(a2-3)Gal(b1-4)GlcNAc(b1-3)Gal(b1-4)[Fuc(a1-3)]GlcNAc
# How it was run: as §1
# [12] = target: Neu5Ac(a2-3)Gal(b1-4)GlcNAc(b1-6)[Gal(b1-3)]GalNAc
# How it was run: as §1
# [13] = target: Neu5Ac(a2-3)Gal(b1-4)GlcNAc(b1-6)[Neu5Ac(a2-3)Gal(b1-3)]GalNAc
# How it was run: as §1
# [14] = target: Neu5Ac(a2-3)Gal(b1-4)GlcNAc6S
# How it was run: as §1
# [15] = target: Neu5Ac(a2-3)Gal(b1-4)[Fuc(a1-3)]GlcNAc
# How it was run: as §1
# [16] = target: Neu5Ac(a2-3)Gal(b1-4)[Fuc(a1-3)]GlcNAc(b1-3)Gal
# How it was run: as §1
# [17] = target: Neu5Ac(a2-3)Gal(b1-4)[Fuc(a1-3)]GlcNAc(b1-3)Gal(b1-4)GlcNAc
# How it was run: as §1
# [18] = target: Neu5Ac(a2-3)Gal(b1-4)[Fuc(a1-3)]GlcNAc(b1-3)Gal(b1-4)[Fuc(a1-3)]GlcNAc(b1-3)Gal(b1-4)[Fuc(a1-3)]GlcNAc
# How it was run: as §1
# [19] = target: Neu5Ac(a2-3)Gal(b1-4)[Fuc(a1-3)]GlcNAc(b1-6)[Gal(b1-3)]GalNAc
# How it was run: as §1
# [20] = target: Neu5Ac(a2-3)Gal(b1-4)[Fuc(a1-3)]GlcNAc6S
# How it was run: as §1
# [21] = target: Neu5Ac(a2-3)Gal6S(b1-4)GlcNAc
# How it was run: as §1
# [22] = target: Neu5Ac(a2-3)Gal6S(b1-4)[Fuc(a1-3)]GlcNAc
# How it was run: as §1
# Neu5Ac(a2-3)GalNAc = target: Neu5Ac(a2-3)GalNAc
# How it was run: as §1
# [23] = target: Neu5Ac(a2-3)GalNAc(b1-4)GlcNAc
# How it was run: as §1
# [24] = target: Neu5Ac(a2-3)[GalNAc(b1-4)]Gal(b1-4)Glc
# How it was run: as §1
# [25] = target: Neu5Ac(a2-3)[GalNAc(b1-4)]Gal(b1-4)GlcNAc
# How it was run: as §1
# [26] = target: Neu5Ac(a2-3)[Neu5Ac(a2-6)]GalNAc
# How it was run: as §1
# Neu5Ac(a2-6)Gal = target: Neu5Ac(a2-6)Gal
# How it was run: as §1
# Neu5Ac(a2-6)Gal(b1-4)Glc = target: Neu5Ac(a2-6)Gal(b1-4)Glc
# How it was run: as §1
# [27] = target: Neu5Ac(a2-6)Gal(b1-4)GlcNAc
# How it was run: as §1
# [28] = target: Neu5Ac(a2-6)Gal(b1-4)GlcNAc(b1-2)Man(a1-3)[Gal(b1-4)GlcNAc(b1-2)Man(a1-6)]Man(b1-4)GlcNAc(b1-4)GlcNAc
# How it was run: as §1
# [29] = target: Neu5Ac(a2-6)Gal(b1-4)GlcNAc(b1-2)Man(a1-3)[GlcNAc(b1-2)Man(a1-6)]Man(b1-4)GlcNAc(b1-4)GlcNAc
# How it was run: as §1
# [30] = target: Neu5Ac(a2-6)Gal(b1-4)GlcNAc(b1-2)Man(a1-3)[GlcNAc(b1-2)Man(b1-4)GlcNAc(b1-2)Man(a1-6)]Man(b1-4)GlcNAc(b1-4)GlcNAc
# How it was run: as §1
# [31] = target: Neu5Ac(a2-6)Gal(b1-4)GlcNAc(b1-2)Man(a1-3)[Neu5Ac(a2-6)Gal(b1-4)GlcNAc(b1-2)Man(a1-6)]Man(b1-4)GlcNAc(b1-4)GlcNAc
# How it was run: as §1
# [32] = target: Neu5Ac(a2-6)Gal(b1-4)GlcNAc(b1-2)Man(a1-6)[Gal(b1-4)GlcNAc(b1-2)Man(a1-3)]Man(b1-4)GlcNAc(b1-4)GlcNAc
# How it was run: as §1
# [33] = target: Neu5Ac(a2-6)Gal(b1-4)GlcNAc(b1-2)Man(a1-6)[GlcNAc(b1-2)Man(a1-3)]Man(b1-4)GlcNAc(b1-4)GlcNAc
# How it was run: as §1
# [34] = target: Neu5Ac(a2-6)Gal(b1-4)GlcNAc(b1-3)Gal(b1-4)GlcNAc
# How it was run: as §1
# [35] = target: Neu5Ac(a2-6)Gal(b1-4)GlcNAc(b1-3)Gal(b1-4)[Fuc(a1-3)]GlcNAc(b1-3)Gal(b1-4)[Fuc(a1-3)]GlcNAc
# How it was run: as §1
# [36] = target: Neu5Ac(a2-6)Gal(b1-4)GlcNAc6S
# How it was run: as §1
# Neu5Ac(a2-6)GalNAc = target: Neu5Ac(a2-6)GalNAc
# How it was run: as §1
# [37] = target: Neu5Ac(a2-6)GalNAc(b1-4)GlcNAc
# How it was run: as §1
# Neu5Ac(a2-8)Neu5Ac = target: Neu5Ac(a2-8)Neu5Ac
# How it was run: as §1
# [38] = target: Neu5Ac(a2-8)Neu5Ac(a2-3)Gal(b1-4)Glc
# How it was run: as §1
# [39] = target: Neu5Ac(a2-8)Neu5Ac(a2-3)[GalNAc(b1-4)]Gal(b1-4)Glc
# How it was run: as §1
# [40] = target: Neu5Ac(a2-8)Neu5Ac(a2-8)Neu5Ac
# How it was run: as §1
# [41] = target: Neu5Ac(a2-8)Neu5Ac(a2-8)Neu5Ac(a2-3)Gal(b1-4)Glc
# How it was run: as §1
# [42] = target: Neu5Ac(a2-8)Neu5Ac(a2-8)Neu5Ac(a2-3)[GalNAc(b1-4)]Gal(b1-4)Glc
# How it was run: as §1
# [43] = target: Neu5Ac(a2-8)Neu5Ac(a2-8)Neu5Ac(a2-8)Neu5Ac(a2-3)[GalNAc(b1-4)]Gal(b1-4)Glc
# How it was run: as §1
# [44] = target: Neu5Ac(b2-6)Gal(b1-4)GlcNAc
# How it was run: as §1
# Neu5Ac(b2-6)GalNAc = target: Neu5Ac(b2-6)GalNAc
# How it was run: as §1
# [45] = target: Neu5Ac9Ac(a2-6)Gal(b1-4)GlcNAc
# How it was run: as §1
# [46] = target: Neu5Gc(a2-3)Gal(b1-3)GlcNAc
# How it was run: as §1
# [47] = target: Neu5Gc(a2-3)Gal(b1-3)[Fuc(a1-4)]GlcNAc
# How it was run: as §1
# Neu5Gc(a2-3)Gal(b1-4)Glc = target: Neu5Gc(a2-3)Gal(b1-4)Glc
# How it was run: as §1
# [48] = target: Neu5Gc(a2-3)Gal(b1-4)GlcNAc
# How it was run: as §1
# [49] = target: Neu5Gc(a2-3)Gal(b1-4)[Fuc(a1-3)]GlcNAc
# How it was run: as §1
# [50] = target: Neu5Gc(a2-6)Gal(b1-4)GlcNAc
# How it was run: as §1
# Neu5Gc(a2-6)GalNAc = target: Neu5Gc(a2-6)GalNAc
# How it was run: as §1
# [51] = target: Neu5Gc(b2-6)Gal(b1-4)GlcNAc
# How it was run: as §1
binder,measurement,setting,value
B1,glycan array binding signal (z-score),[1],-0.168
same,glycan array binding signal (z-score),[2],-0.43
same,glycan array binding signal (z-score),[3],-0.211
same,glycan array binding signal (z-score),[4],-0.2
same,glycan array binding signal (z-score),Neu5Ac(a2-3)Gal(b1-4)Glc,-0.087
same,glycan array binding signal (z-score),[5],0.347
same,glycan array binding signal (z-score),[6],-0.196
same,glycan array binding signal (z-score),[7],-0.273
same,glycan array binding signal (z-score),[8],-0.251
same,glycan array binding signal (z-score),[9],1
same,glycan array binding signal (z-score),[10],1.33
same,glycan array binding signal (z-score),[11],0.601
same,glycan array binding signal (z-score),[12],-0.007
same,glycan array binding signal (z-score),[13],-0.227
same,glycan array binding signal (z-score),[14],-1.32
same,glycan array binding signal (z-score),[15],-0.385
same,glycan array binding signal (z-score),[16],-0.38
same,glycan array binding signal (z-score),[17],-0.31
same,glycan array binding signal (z-score),[18],0.449
same,glycan array binding signal (z-score),[19],-0.218
same,glycan array binding signal (z-score),[20],-0.213
same,glycan array binding signal (z-score),[21],-0.077
same,glycan array binding signal (z-score),[22],-0.35
same,glycan array binding signal (z-score),Neu5Ac(a2-3)GalNAc,0.048
same,glycan array binding signal (z-score),[23],-0.444
same,glycan array binding signal (z-score),[24],-0.249
same,glycan array binding signal (z-score),[25],-0.148
same,glycan array binding signal (z-score),[26],-0.305
same,glycan array binding signal (z-score),Neu5Ac(a2-6)Gal,-0.129
same,glycan array binding signal (z-score),Neu5Ac(a2-6)Gal(b1-4)Glc,-0.272
same,glycan array binding signal (z-score),[27],-0.325
same,glycan array binding signal (z-score),[28],2.93
same,glycan array binding signal (z-score),[29],-0.24
same,glycan array binding signal (z-score),[30],-0.323
same,glycan array binding signal (z-score),[31],-0.101
same,glycan array binding signal (z-score),[32],0.603
same,glycan array binding signal (z-score),[33],-0.514
same,glycan array binding signal (z-score),[34],-0.657
same,glycan array binding signal (z-score),[35],0.319
same,glycan array binding signal (z-score),[36],-0.454
same,glycan array binding signal (z-score),Neu5Ac(a2-6)GalNAc,-0.431
same,glycan array binding signal (z-score),[37],-0.338
same,glycan array binding signal (z-score),Neu5Ac(a2-8)Neu5Ac,0.006
same,glycan array binding signal (z-score),[38],-0.153
same,glycan array binding signal (z-score),[39],-0.573
same,glycan array binding signal (z-score),[40],0.01
same,glycan array binding signal (z-score),[41],-0.291
same,glycan array binding signal (z-score),[42],-0.092
same,glycan array binding signal (z-score),[43],-0.432
same,glycan array binding signal (z-score),[44],-0.353
same,glycan array binding signal (z-score),Neu5Ac(b2-6)GalNAc,-0.449
same,glycan array binding signal (z-score),[45],-0.233
same,glycan array binding signal (z-score),[46],-0.274
same,glycan array binding signal (z-score),[47],-0.317
same,glycan array binding signal (z-score),Neu5Gc(a2-3)Gal(b1-4)Glc,0.321
same,glycan array binding signal (z-score),[48],0.258
same,glycan array binding signal (z-score),[49],-0.137
same,glycan array binding signal (z-score),[50],-0.596
same,glycan array binding signal (z-score),Neu5Gc(a2-6)GalNAc,-0.083
same,glycan array binding signal (z-score),[51],-0.128
